PubChem BioAssay AID686978 (National Center for Advancing Translational Sciences (NCATS), 2013)
Where “and” joins values, the source holds several entries; their conditions need not be identical. Identical values can stand only once. The campaign covered roughly 420,000 compounds. About 64,000 (15%) were called active. The shares of active, inactive and inconclusive entries below differ from those in the screen. Calls come from the whole dose curve; as a rule, active = well fitted inhibition curve with a large enough effect; inconclusive = small, poorly fitted or top-dose-only effect; inactive = flat fitted curve, though single readings scatter. Potencies of inconclusive entries are doubtful fits and often do not repeat.

Assay: qHTS for Inhibitors of human tyrosyl-DNA phosphodiesterase 1 (TDP1): qHTS in cells in absence of CPT; note: nearly all actives have a fitted effect of over 55% in size
Conditions: DT40 Tdp1-/- hTDP1 cells, no CPT, ATP luminescence, 48 h; activity change, negative = growth inhibition: at 46.2 µM (top of the series) unless noted
Procedure, shortened: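 Growth kinetics read by CellTiter-Glo luminescence after ≥48 hr at 37 °C. Cells: DT40 Tdp1-/- stably carrying human TDP1, 400 per well, compound exposure in the absence of CPT (DMSO vehicle).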
% is set by controls: 0 for no effect and ±100 for the full control effect; potency is the fitted concentration of half-maximal effect; tags give direction and shape of the fitted curve.

SMILES | Potency | activity change, negative = growth inhibition
COc1ccc(OC)c(NC(=O)CN2CCC(C(=O)c3ccc(C)cc3)CC2)c1 | active: 20.6 µM | –
CN1CCC(=NNC(=O)CN(c2cccc([N+](=O)[O-])c2)S(=O)(=O)c2ccccc2)CC1 | – | inactive: -19.2%
COc1ccc(C(=O)NCCN2CCOCC2)cc1OC | – | inactive: 5.03%
O=C(O)c1ccc(N2CCCC2=O)cc1 | – | inactive: -0.963%
CCOCCCN(C(=O)CNC(=O)c1ccco1)C(C(=O)NC1CCCC1)c1cccc(OC)c1 (stereo unspecified) | – | inactive: -11.8%
COc1ccc(CN(Cc2ccccn2)C(=O)CN2C(=O)C(C)Oc3ccccc32)cc1 (stereo unspecified) | active: 20.6 µM | –
CCN(CC)C(=O)C1CCN(Cc2cccc(OCc3ccccc3)c2)CC1 | inconclusive: 25.9 µM [inhibitor, single point] | –
Cn1ncc(Br)c1C(=O)N/N=C/c1cccc(OC2CSC2)c1 | inconclusive: 18.4 µM [inhibitor, single point] | –
Cc1cc([N+](=O)[O-])nn1Cc1noc(C(=O)NCCCn2ccnc2)n1 | – | inactive: -7.39%
C=CCN(c1ccc(Cl)cc1)S(=O)(=O)c1cccc(C(=O)O)c1 | – | inactive: 7.56%
CCOC(=O)c1nnn(-c2nonc2N)c1COc1cc(C)c(Cl)c(C)c1 | – | inconclusive: -31.1% [inhibitor]
c1coc(CNc2nc3nonc3nc2NCc2ccco2)c1 | inactive and inconclusive: 35.5 µM [inhibitor, single point] | –
Cc1ccnc(NC(=O)C2CCCN(c3ncnc4c3nc3n4CCCCC3)C2)c1 (stereo unspecified) | inconclusive: 6.51 µM [inhibitor, full curve] | –
CS(=O)(=O)N1CCN(c2ccc(NC(=O)C(c3ccccc3)c3ccccc3)cc2)CC1 | inconclusive: 20.6 µM [inhibitor, single point] | –
CCCCC1Cc2[nH]c(=S)[nH]c(=O)c2C(c2ccc(C(C)C)cc2)O1 (stereo unspecified) | active: 23.1 µM | –
COc1ccc(CNC2CC(=O)N(C)C2=O)cc1 (stereo unspecified) | – | inactive: -6.18%
CC(O)(c1cccnc1)c1nc(-c2cccc(F)c2)cs1 (stereo unspecified) | – | inactive: -27.4%
O=C(CNC(=O)c1ccco1)Nc1cccc(Cl)c1 | – | inactive: 17.9%

SMILES | Potency | activity change, negative = growth inhibition
CCn1c(SCC(=O)NC2CC2)nnc1-c1ccc(C)cc1 | – | inactive: 5.24%
Cc1coc2cc3oc(=O)c(CCC(=O)N4CCCCC4)c(C)c3cc12 | active: 20.6 µM | –
CCCCn1c(=O)[nH]c(=O)c2c1nc(-c1ccc(OCC)cc1)n2CC | inconclusive: 1.64 µM [inhibitor, full curve] | –
CCC(=O)N1CCc2cc(Br)cc(S(=O)(=O)NCc3cccc(OC)c3)c21 | – | inactive: -23.6%
COc1ccccc1S(=O)(=O)NCc1ccc(C(=O)N(C)Cc2ccc(F)cc2)cc1 | inconclusive: 20.6 µM [inhibitor, single point] | –
CC1(C)CC(=O)C2=C(C1)c1c(ccc3ccccc13)NC2c1ccco1 (stereo unspecified) | inconclusive: 25.9 µM [inhibitor, single point] | –
Cc1ccc(CNS(=O)(=O)c2cc3c4c(c2)CCN4C(=O)CC3)cc1 | – | inactive: -22.3%
COc1cccc(NC(=O)Cn2c(=O)n(-c3ccccc3)c(=O)c3c4c(sc32)CCCC4)c1 | inconclusive: 11.6 µM [inhibitor, partial curve] | –
Cc1ccc(-c2cc(N)n(Cc3cccc(Cl)c3)n2)cc1 | inconclusive: 14.6 µM [inhibitor, partial curve, poor fit] | –
Cc1ccsc1C(=O)NCc1ccc(F)cc1 | – | inactive: 4.64%
COc1ccc(Cc2nc3ccc(C(=O)NCC4CCOCC4)cc3o2)cc1OC | inconclusive: 23.1 µM [inhibitor, partial curve] | –
COc1ccc(/C=N/N=C/c2c[nH]c(=O)c(C#N)c2Nc2ccccc2)cc1 | inconclusive: 16.4 µM [inhibitor, single point] | –
Cc1ccc(C)c(NC(=O)CCc2nc3cccnc3n2Cc2cccs2)c1 | active: 20.6 µM | –
C=CC[n+]1c(/C=C2\C=Cc3cc(C)ccc3N2CC)ccc2ccccc21 | active: 0.0731 µM | –
CC(C)=CCC[C@H](C)C[C@@H]1CC2=C(C(=O)OC(C)(C)O2)[C@H](c2ccc(Cl)cc2)O1 | inconclusive: 25.9 µM [inhibitor, single point] | –
COc1cccc(-c2onc3ccc(C4(C)OCCO4)cc23)c1 | inconclusive: 18.4 µM [inhibitor, single point] | –
CCN(CC)C(=O)CSc1nc(-c2ccccc2)cc(-c2ccc(OC)cc2)c1C#N | inconclusive: 29.1 µM [inhibitor, single point] | –
COc1cc(C(=O)NCc2cn3cccc(C)c3n2)cc(OC)c1OC | inconclusive: 29.1 µM [inhibitor, single point] | –
